Assay results: the supplement of paper PMC11417369
The other results are listed elsewhere or left out.

These sequences were tested on PfSIP2 AP2 domain 1 (GST-tagged) (assay: gcPBM binding intensity (ln(normalized median fluorescence intensity)); higher = stronger DNA binding).
Outline: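 After 1 h on an Agilent 4 × 180k array of primer-extended double-stranded 36-bp intergenic genomic probes and negative controls, bound GST-tagged P. falciparum DNA-binding domains were detected with Alexa488 anti-GST antibody and scanned at 488 nm. The domains had been expressed in E. coli, and binding took place in 1× PBS with 1% milk, 0.2 mg/ml BSA, 0.5% salmon testes DNA and 0.03% Triton X-100. Binding intensity is the highest Masliner-normalised natural-log median intensity across replicate spots of either probe orientation.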

Sequence | gcPBM binding intensity (ln)
TTTTTTTTTAAGCAAAGGAAATCAAAATAAAAATAT [CACACA_negctrl_site719] | 7.08
TTATAAATTATATATATGACCAATAATTGTGAGCAT [CACACA_negctrl_site725] | 7.27
TTTTTTTTTTATTCTACACACATATGTTTTTATATG [CACACA_site182] | 7.17
TATATATATATATGTTGTACTTTTAATTTAAATGTA [XGTACX_site4239] | 9.63
TGTCGACATGTAGGTAGTACTATTAAAAATAATGAT [XGTACX_site3849] | 7.19
ATAGAAGGACATATAACACACATATATTATAAGTAT [CACACA_site5461] | 7.1
AAATATATATATATAATACACACTAAAGTAACATAA [CACACA_site2870] | 7.1
GGATGATTAAGGGGGACACACGTTTATATATTTATA [CACACA_site4342] | 7.82
AAATAGGGAATTTATGCACACAGTTAAGGGGGAAAA [CACACA_site2071] | 7.94
ATATATTATTATATATGTACTTATTTATAAATGATT [XGTACX_site7597] | 7.32
AATAAATTAATAAGGTGTACATAAATAATTTATATA [XGTACX_site8278] | 6.99
TAAATATAAACACAAACACACACATATATATATATA [CACACA_site7978] | 9.28
ATTCAAAAGGTTTAATGTACGTGATGTTTCACAAAT [XGTACX_site784] | 6.96
CATACTCTACATAGATGTACTCATTTAAAAAAAAAA [XGTACX_site6945] | 7.42
ATTTTTTTTTTTTTTTTTTTTTTTTTCTCTCTCACT [CACACA_negctrl_site1046] | 6.94
TTATATTAAACAAACACACACATATATATATATATA [CACACA_site2382] | 9.54
TTAACAAATGGACACACACACACACCCAAAAAAAAA [CACACA_site4443] | 7.26
TGTTACATATTATAAATACATTAACTATTATATGTA [CACACA_negctrl_site1735] | 6.84
TATATATATATATATTGTACATATTGTATATATTGT [XGTACX_site3212] | 9.46
TTTATAAAAAATTTTTTTTTTTTTTTTTAAATATAT [CACACA_negctrl_site146] | 6.59
TATATATATATTTATACACACATTAGTGTATCCATG [CACACA_site5609] | 8.51
TTGGCATACAGACACACACACACACGCCCACATATA [CACACA_site6425] | 6.91

Sequence | gcPBM binding intensity (ln)
TTTTTTTTTTGTAGTTGTACGAACTAGCTATTTATG [XGTACX_site692] | 7.08
ATATATATATATATATGTACATATATATATTTTTTA [XGTACX_site5987] | 9.52
TTATTTTTTCAAGAATGTACTTACGAATTGTCGTAT [XGTACX_site1363] | 6.73
ATCAATACACATATATGTACATATAATAATTATCTT [XGTACX_site662] | 7.35
CAAAAAAACAAACACACACACACACCCATATATATA [CACACA_site3653] | 7.37
TAATTACCATATGGTACACACATATATATATGTATA [CACACA_site3487] | 7.19
TTTCTTAAATATATGCGTACTCAAAATTGTTCTACA [XGTACX_site7995] | 7.04
TAACCACAAAAATAAAATCAAAAAAAAAAAAAAAAA [CACACA_negctrl_site1727] | 6.75
AAAAATATAATATAATGTACACATAAACAAAAAAAA [XGTACX_site3658] | 7.04
AACAGACATACATACACACATACATACAGACATACA [CACACA_site1942] | 7.09
ATATATATATATTTCGCACACATAATCTTATTAAAT [CACACA_site2579] | 9.09
TAAAATAAAACAAACACACACACACCGACACAAAAA [CACACA_site5993] | 7.05
ACATTCTATACATACACACCCACACCCAAAAAAAAA [CACACA_site863] | 7.71
TATATATCAATATACACACACACATATTTATTTATA [CACACA_site6858] | 7.05
ATGTATCATAAGAACTGTGTGGTTACAGACACGAAC [GTGCAC_negctrl_site416] | 7.04
TACTATGCCCCATATAAACACACAAATAAAAAGAAT [CACACA_site8857] | 7.67
TATAAACCTACATACACACATACAATAAGTAAAATG [CACACA_site1921] | 6.99
AACTATATATATAATTCACACATGTTTTAAAATTTT [CACACA_site4971] | 7.22
TATAATTAATTAGAAGTGCATTAGGTAACAACTGTC [GTGCAC_site9746] | 8.02
CTATGCATTTATAGTGCATGTAAAATATAAGATAAT [TGCATGCA_site71] | 10.3
AACGCAGTTTAATATACACACCAAAAAAAAAAAAAG [CACACA_site5643] | 7.04
TTTCCTTTTTTAATATGTACACATATTATTATATCT [XGTACX_site3079] | 7.07

Sequence | gcPBM binding intensity (ln)
ATATATTCTTATTGCTGTACACATATTTTCTAAAAA [XGTACX_site4851] | 7.25
TTAAAAATAAAACAAAGTACTCAAGTTATTGTCTTT [XGTACX_site1584] | 6.7
TATGATATGTATGGAAGTACGAAGAGGGATGATCAG [XGTACX_site1677] | 7.09
CACGCATACAGACACACACACACACCCATATATATA [CACACA_site636] | 7.36
CGTAAATTTTTCTAAGTGCATGTTAATTTTTCAATT | 9.1
TAAATACCTATATGGCGTACTATTATCATAGTATAT [XGTACX_site5423] | 6.79
TATTTATTATGATACTCATATTATTCTATGATTAAA [GTGCAC_negctrl_site486] | 6.67
TGAAATAAAATTTGTACACACATATATATATATATA [CACACA_site586] | 9.19
GTGAATCCTAAGTGTACACATCTTACAGATATATAT [CACACA_site4836] | 7.19
ATTTTCAAATTAAAATGTACAAATGAAAGAAAGGGA [XGTACX_site7048] | 7.24
GCACAAATCATCAAATGTACAGAAAATGCTGTCAAT [XGTACX_site5037] | 6.88
TTCCTTCATTGGAAAAGTACACAATATTGTCGTTTA [XGTACX_site8057] | 7.11
ATATAGGTATAATACACACACTAATATGTAACTGTA [CACACA_site7011] | 7.13
ATGTCATATATATGTTGTACGAGTTTGTTTATGTAT [XGTACX_site1150] | 7.21
TTCATTTTATAAAAAGCACACATATAGTTATATGCA [CACACA_site9228] | 6.85
AGTTTACATTAAATCACGCACACAAAAAAAAAAAAA [CACACA_site2419] | 7.16
TACCTTTTTTATGTTGCACACTGGGATGTTTTCTAA [CACACA_site1653] | 7.61
ATTCATATTTTTCAAGTGCGCATTAAAATATTAACC [GTGCAC_site9741] | 9.31
AATATATTTTTTTTTGGTACACAAGCACATCTATAC [XGTACX_site2183] | 7.36
TTTCGATTATGTTTTTGTACGCAATATATTAATTCT [XGTACX_site3634] | 7.31
AATGTGCAGAAAAGTGGTACATATGATTGTTAAGAG [XGTACX_site1038] | 7.3
CCATGATTATTAGATTGTACATAACATACAAATTGA [XGTACX_site314] | 6.83

Sequence | gcPBM binding intensity (ln)
AAAACAAATAAGTAAACACACATATATAATATATAT [CACACA_site2586] | 7.18
AAAAAAAAAAAAACTAGTACATATATATAGTATGAA [XGTACX_site6279] | 7.22
GAATATAAAAGGAACGGTACAGAAAAAAAAAAAAAA [XGTACX_site3917] | 6.87
TTTATTTTTTATATATCACTTAAAAAAAAAAAAAAA [CACACA_negctrl_site249] | 7.05
ATTTATATTTTATATACACACATGAACTTATATGGA [CACACA_site3167] | 6.99
ATAACCTAATAATACACACACATGAATATATATAAT [CACACA_site4689] | 7.11
CTTTTTTTTTTATGCACACACAATTATACATTCCTT [CACACA_site3877] | 7.58
AATATAGTCTCACATACACACATATATATTTATATA [CACACA_site2503] | 7.1
ATGTAATATATTATATGTACATATTTTTATGTAGAT [XGTACX_site5945] | 6.95
ACAAGTGTATATGTTATATATATATATATATATATA [CACACA_negctrl_site1686] | 9.73
TACGTATTCATGTATAGTACTCTTTTTTTTAATAAA [XGTACX_site3299] | 6.84
TTATTACGAACTCTGCAACATATATAAATAAATAAA [CACACA_negctrl_site44] | 7.25
AAAATAATATTTAATACACACATAATTACAATATAA [CACACA_site6510] | 6.94
AAAGATAAAATATATACACACACATAAATACGTACA [CACACA_site8275] | 7.26
ATTATATTTGAATGGTGTACTATAATAATGTAGTTT [XGTACX_site8069] | 7.14
ACATATATATATATATAAATATATATGTATGTATTT [XGTACX_negctrl_site237] | 7.18
GAATAAATTAAATTCACACATAAAATACAAAATACA [CACACA_site5495] | 6.9
CATACACGCGGACACACACACACACGCATATATAAC [CACACA_site6427] | 7.42
AAAGAAAATAGGTGTACACATAATAAATACAGCTAT [CACACA_site5917] | 7.64
CTTATATTAATTATTACACACATATATATAAATGCA [CACACA_site770] | 7.18
AAAAAAAAAAGAAACACACACATATATATATATAAT [CACACA_site5052] | 7.23
TATATATATTCTTTAAAACACACGTAAAGAAGAATT [CACACA_site2718] | 7.22
